# Laboratory results taken from the supplement of paper PMC8728848.
# The other results are listed elsewhere or left out.
# B1: SLR2P3F12 (Tachypleus tridentatus), TAL2_TACTR (protein)
# chain: MEKGTPPTHDSDNWMGRAKKIGNGGWNQFQFLFFDPNGYLYAVSKDKLYKASPPQSDTDNWIARATEIGSGGWSGFKSLFFHPNGYLYAVHGQRLYKALPPVSNQD
# Experiments:
# Assay in all cases: glycan array binding signal (z-score within array); higher = stronger binding
# Conditions in all cases: glycan notation: IUPAC condensed, linker removed
# GalNAc(b1-3)GalNAc = target: GalNAc(b1-3)GalNAc
# Procedure, shortened: (§1)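 Glycan array data came from 3228 arrays in the Consortium for Functional Glycomics database, and only arrays with an available protein sequence were kept. Glycan names were put into IUPAC-condensed notation, and columns mapping to the same glycan were averaged. The binding signal is a within-array Z-score, averaged across arrays of one protein sequence run at different concentrations or buffers and across linkers. A negative Z-score can be read as non-binding.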
# GalNAc(b1-4)GlcNAc = target: GalNAc(b1-4)GlcNAc
# Procedure, shortened: as §1
# Glc(a1-4)Glc = target: Glc(a1-4)Glc
# Procedure, shortened: as §1
# Glc(a1-6)Glc(a1-6)Glc = target: Glc(a1-6)Glc(a1-6)Glc
# Procedure, shortened: as §1
# Glc(b1-4)Glc = target: Glc(b1-4)Glc
# Procedure, shortened: as §1
# Glc(b1-6)Glc = target: Glc(b1-6)Glc
# Procedure, shortened: as §1
# GlcA(b1-3)Gal = target: GlcA(b1-3)Gal
# Procedure, shortened: as §1
# GlcA(b1-3)GlcNAc = target: GlcA(b1-3)GlcNAc
# Procedure, shortened: as §1
# GlcA(b1-6)Gal = target: GlcA(b1-6)Gal
# Procedure, shortened: as §1
# [1] = target: GlcNAc(a1-3)Gal(b1-4)GlcNAc
# Procedure, shortened: as §1
# [2] = target: GlcNAc(a1-6)Gal(b1-4)GlcNAc
# Procedure, shortened: as §1
# [3] = target: GlcNAc(b1-2)Gal(b1-3)GalNAc
# Procedure, shortened: as §1
# [4] = target: GlcNAc(b1-2)Man(a1-3)[GlcNAc(b1-2)Man(a1-6)]Man(b1-4)GlcNAc(b1-4)GlcNAc
# Procedure, shortened: as §1
# GlcNAc(b1-3)Gal = target: GlcNAc(b1-3)Gal
# Procedure, shortened: as §1
# [5] = target: GlcNAc(b1-3)Gal(b1-3)GalNAc
# Procedure, shortened: as §1
# GlcNAc(b1-3)Gal(b1-4)Glc = target: GlcNAc(b1-3)Gal(b1-4)Glc
# Procedure, shortened: as §1
# [6] = target: GlcNAc(b1-3)Gal(b1-4)GlcNAc
# Procedure, shortened: as §1
# [7] = target: GlcNAc(b1-3)Gal(b1-4)GlcNAc(b1-3)Gal(b1-4)GlcNAc
# Procedure, shortened: as §1
# GlcNAc(b1-3)GalNAc = target: GlcNAc(b1-3)GalNAc
# Procedure, shortened: as §1
# GlcNAc(b1-3)Man = target: GlcNAc(b1-3)Man
# Procedure, shortened: as §1
# [8] = target: GlcNAc(b1-3)[GlcNAc(b1-4)][GlcNAc(b1-6)]GlcNAc
# Procedure, shortened: as §1
# [9] = target: GlcNAc(b1-3)[GlcNAc(b1-6)]Gal(b1-4)GlcNAc
# Procedure, shortened: as §1
# [10] = target: GlcNAc(b1-3)[GlcNAc(b1-6)]GalNAc
# Procedure, shortened: as §1
# [11] = target: GlcNAc(b1-4)Gal(b1-4)GlcNAc
# Procedure, shortened: as §1
# GlcNAc(b1-4)GlcNAc = target: GlcNAc(b1-4)GlcNAc
# Procedure, shortened: as §1
# [12] = target: GlcNAc(b1-4)GlcNAc(b1-4)GlcNAc
# Procedure, shortened: as §1
# [13] = target: GlcNAc(b1-4)GlcNAc(b1-4)GlcNAc(b1-4)GlcNAc(b1-4)GlcNAc
# Procedure, shortened: as §1
# [14] = target: GlcNAc(b1-4)GlcNAc(b1-4)GlcNAc(b1-4)GlcNAc(b1-4)GlcNAc(b1-4)GlcNAc
# Procedure, shortened: as §1
# [15] = target: GlcNAc(b1-4)[GlcNAc(b1-6)]GalNAc
# Procedure, shortened: as §1
# [16] = target: GlcNAc(b1-6)Gal(b1-4)GlcNAc
# Procedure, shortened: as §1
# GlcNAc(b1-6)GalNAc = target: GlcNAc(b1-6)GalNAc
# Procedure, shortened: as §1
# GlcNAc3Prop(b1-4)GlcNAc = target: GlcNAc3Prop(b1-4)GlcNAc
# Procedure, shortened: as §1
# Kdn(a2-3)Gal(b1-3)GlcNAc = target: Kdn(a2-3)Gal(b1-3)GlcNAc
# Procedure, shortened: as §1
# Kdn(a2-3)Gal(b1-4)GlcNAc = target: Kdn(a2-3)Gal(b1-4)GlcNAc
# Procedure, shortened: as §1
# [17] = target: Man(a1-2)Man(a1-2)Man(a1-3)Man
# Procedure, shortened: as §1
# [18] = target: Man(a1-2)Man(a1-2)Man(a1-6)[Man(a1-3)]Man
# Procedure, shortened: as §1
# Man(a1-2)Man(a1-3)Man = target: Man(a1-2)Man(a1-3)Man
# Procedure, shortened: as §1
# [19] = target: Man(a1-2)Man(a1-3)[Man(a1-2)Man(a1-6)]Man
# Procedure, shortened: as §1
# [20] = target: Man(a1-2)Man(a1-3)[Man(a1-2)Man(a1-6)]Man(a1-6)[Man(a1-2)Man(a1-2)Man(a1-3)]Man
# Procedure, shortened: as §1
# [21] = target: Man(a1-2)Man(a1-3)[Man(a1-2)Man(a1-6)]Man(a1-6)[Man(a1-2)Man(a1-2)Man(a1-3)]Man(b1-4)GlcNAc(b1-4)GlcNAc
# Procedure, shortened: as §1
# [22] = target: Man(a1-2)Man(a1-3)[Man(a1-6)]Man(a1-6)[Man(a1-2)Man(a1-3)]Man(b1-4)GlcNAc(b1-4)GlcNAc
# Procedure, shortened: as §1
# [23] = target: Man(a1-2)Man(a1-6)[Man(a1-3)]Man(a1-6)[Man(a1-2)Man(a1-2)Man(a1-3)]Man
# Procedure, shortened: as §1
# [24] = target: Man(a1-2)Man(a1-6)[Man(a1-3)]Man(a1-6)[Man(a1-2)Man(a1-2)Man(a1-3)]Man(b1-4)GlcNAc(b1-4)GlcNAc
# Procedure, shortened: as §1
# Man(a1-3)[Man(a1-6)]Man = target: Man(a1-3)[Man(a1-6)]Man
# Procedure, shortened: as §1
# [25] = target: Man(a1-3)[Man(a1-6)]Man(a1-6)[Man(a1-2)Man(a1-3)]Man(b1-4)GlcNAc(b1-4)GlcNAc
# Procedure, shortened: as §1
# [26] = target: Man(a1-3)[Man(a1-6)]Man(a1-6)[Man(a1-3)]Man
# Procedure, shortened: as §1
# [27] = target: Man(a1-3)[Man(a1-6)]Man(a1-6)[Man(a1-3)]Man(b1-4)GlcNAc(b1-4)GlcNAc
# Procedure, shortened: as §1
# [28] = target: Man(a1-3)[Man(a1-6)]Man(b1-4)GlcNAc(b1-4)GlcNAc
# Procedure, shortened: as §1
# Man(a1-6)Man = target: Man(a1-6)Man
# Procedure, shortened: as §1
# Man(b1-4)GlcNAc = target: Man(b1-4)GlcNAc
# Procedure, shortened: as §1
# Neu5Ac(a2-3)Gal = target: Neu5Ac(a2-3)Gal
# Procedure, shortened: as §1
# [29] = target: Neu5Ac(a2-3)Gal(b1-3)GalNAc
# Procedure, shortened: as §1
# [30] = target: Neu5Ac(a2-3)Gal(b1-3)GalNAc(b1-3)Gal(a1-4)Gal(b1-4)Glc
# Procedure, shortened: as §1
# [31] = target: Neu5Ac(a2-3)Gal(b1-3)GalNAc(b1-3)Gal(b1-4)GlcNAc
# Procedure, shortened: as §1
# [32] = target: Neu5Ac(a2-3)Gal(b1-3)GalNAc(b1-4)[Neu5Ac(a2-3)]Gal(b1-4)Glc
# Procedure, shortened: as §1
# [33] = target: Neu5Ac(a2-3)Gal(b1-3)GalNAc6S
# Procedure, shortened: as §1
# [34] = target: Neu5Ac(a2-3)Gal(b1-3)GlcNAc
# Procedure, shortened: as §1
# [35] = target: Neu5Ac(a2-3)Gal(b1-3)GlcNAc(b1-3)Gal(b1-3)GlcNAc
# Procedure, shortened: as §1
# [36] = target: Neu5Ac(a2-3)Gal(b1-3)GlcNAc6S
# Procedure, shortened: as §1
binder,measurement,setting,value
B1,glycan array binding signal (z-score),GalNAc(b1-3)GalNAc,-0.148
same,glycan array binding signal (z-score),GalNAc(b1-4)GlcNAc,-0.615
same,glycan array binding signal (z-score),Glc(a1-4)Glc,0.228
same,glycan array binding signal (z-score),Glc(a1-6)Glc(a1-6)Glc,-0.231
same,glycan array binding signal (z-score),Glc(b1-4)Glc,-0.402
same,glycan array binding signal (z-score),Glc(b1-6)Glc,0.131
same,glycan array binding signal (z-score),GlcA(b1-3)Gal,0.008
same,glycan array binding signal (z-score),GlcA(b1-3)GlcNAc,-0.047
same,glycan array binding signal (z-score),GlcA(b1-6)Gal,-0.074
same,glycan array binding signal (z-score),[1],5.11
same,glycan array binding signal (z-score),[2],13.2
same,glycan array binding signal (z-score),[3],-0.411
same,glycan array binding signal (z-score),[4],-0.032
same,glycan array binding signal (z-score),GlcNAc(b1-3)Gal,-0.413
same,glycan array binding signal (z-score),[5],-0.325
same,glycan array binding signal (z-score),GlcNAc(b1-3)Gal(b1-4)Glc,-0.166
same,glycan array binding signal (z-score),[6],-0.194
same,glycan array binding signal (z-score),[7],-0.426
same,glycan array binding signal (z-score),GlcNAc(b1-3)GalNAc,-0.359
same,glycan array binding signal (z-score),GlcNAc(b1-3)Man,0.492
same,glycan array binding signal (z-score),[8],-0.469
same,glycan array binding signal (z-score),[9],-0.471
same,glycan array binding signal (z-score),[10],0.799
same,glycan array binding signal (z-score),[11],-0.49
same,glycan array binding signal (z-score),GlcNAc(b1-4)GlcNAc,-0.225
same,glycan array binding signal (z-score),[12],-0.41
same,glycan array binding signal (z-score),[13],-0.445
same,glycan array binding signal (z-score),[14],0.038
same,glycan array binding signal (z-score),[15],-0.186
same,glycan array binding signal (z-score),[16],-0.334
same,glycan array binding signal (z-score),GlcNAc(b1-6)GalNAc,-0.424
same,glycan array binding signal (z-score),GlcNAc3Prop(b1-4)GlcNAc,-0.433
same,glycan array binding signal (z-score),Kdn(a2-3)Gal(b1-3)GlcNAc,-0.011
same,glycan array binding signal (z-score),Kdn(a2-3)Gal(b1-4)GlcNAc,-0.446
same,glycan array binding signal (z-score),[17],-0.489
same,glycan array binding signal (z-score),[18],-0.021
same,glycan array binding signal (z-score),Man(a1-2)Man(a1-3)Man,-0.434
same,glycan array binding signal (z-score),[19],-0.388
same,glycan array binding signal (z-score),[20],-0.234
same,glycan array binding signal (z-score),[21],0.798
same,glycan array binding signal (z-score),[22],-0.302
same,glycan array binding signal (z-score),[23],-0.273
same,glycan array binding signal (z-score),[24],0.04
same,glycan array binding signal (z-score),Man(a1-3)[Man(a1-6)]Man,0.42
same,glycan array binding signal (z-score),[25],0.637
same,glycan array binding signal (z-score),[26],-0.286
same,glycan array binding signal (z-score),[27],-0.097
same,glycan array binding signal (z-score),[28],0.138
same,glycan array binding signal (z-score),Man(a1-6)Man,-0.338
same,glycan array binding signal (z-score),Man(b1-4)GlcNAc,-0.531
same,glycan array binding signal (z-score),Neu5Ac(a2-3)Gal,-0.415
same,glycan array binding signal (z-score),[29],0.414
same,glycan array binding signal (z-score),[30],-0.245
same,glycan array binding signal (z-score),[31],-0.408
same,glycan array binding signal (z-score),[32],-0.145
same,glycan array binding signal (z-score),[33],-0.182
same,glycan array binding signal (z-score),[34],-0.317
same,glycan array binding signal (z-score),[35],-0.5
same,glycan array binding signal (z-score),[36],-0.219
